Among all 310,000 compounds or so, about 2,200 (0.71%) showed an effect of 50% or more. Effects have a minus sign here. This is one part of the list.
Each molecule was assayed against human ether-à-go-go-related gene (hERG) potassium channel (human, UniProt Q12809) (assay: primary screen, population patch clamp on CHO cells stably expressing hERG).
human ether-à-go-go-related gene (hERG) potassium channel, sequence (Q12809 whole entry, looked up): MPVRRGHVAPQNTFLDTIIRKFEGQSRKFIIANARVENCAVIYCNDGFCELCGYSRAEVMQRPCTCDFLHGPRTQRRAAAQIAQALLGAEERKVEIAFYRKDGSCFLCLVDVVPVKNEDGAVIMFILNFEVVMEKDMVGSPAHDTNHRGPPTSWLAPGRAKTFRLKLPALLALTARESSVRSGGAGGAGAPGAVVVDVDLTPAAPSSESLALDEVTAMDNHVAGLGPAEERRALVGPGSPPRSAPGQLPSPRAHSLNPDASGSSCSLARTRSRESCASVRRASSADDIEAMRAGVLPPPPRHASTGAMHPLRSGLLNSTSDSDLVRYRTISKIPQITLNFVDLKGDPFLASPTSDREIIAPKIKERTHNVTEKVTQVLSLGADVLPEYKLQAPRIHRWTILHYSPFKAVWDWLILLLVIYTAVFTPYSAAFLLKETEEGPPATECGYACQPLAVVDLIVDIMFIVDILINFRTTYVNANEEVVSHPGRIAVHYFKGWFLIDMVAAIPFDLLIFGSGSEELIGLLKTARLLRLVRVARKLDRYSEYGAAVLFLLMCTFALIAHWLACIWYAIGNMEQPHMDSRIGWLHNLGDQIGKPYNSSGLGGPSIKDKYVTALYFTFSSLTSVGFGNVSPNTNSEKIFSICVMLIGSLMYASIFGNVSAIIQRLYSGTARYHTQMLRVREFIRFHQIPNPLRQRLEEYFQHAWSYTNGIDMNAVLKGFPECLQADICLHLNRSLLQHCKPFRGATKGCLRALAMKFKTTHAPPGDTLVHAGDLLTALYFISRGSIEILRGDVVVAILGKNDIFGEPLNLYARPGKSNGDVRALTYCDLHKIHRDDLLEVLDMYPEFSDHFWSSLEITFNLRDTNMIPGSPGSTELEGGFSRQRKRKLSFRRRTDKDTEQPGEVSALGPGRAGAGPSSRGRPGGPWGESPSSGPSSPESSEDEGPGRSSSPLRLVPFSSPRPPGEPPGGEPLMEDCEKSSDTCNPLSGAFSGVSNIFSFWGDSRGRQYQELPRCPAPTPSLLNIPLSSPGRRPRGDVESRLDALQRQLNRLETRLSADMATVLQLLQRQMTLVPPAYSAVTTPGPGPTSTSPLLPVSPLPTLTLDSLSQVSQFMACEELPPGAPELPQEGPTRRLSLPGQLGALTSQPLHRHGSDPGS

Going from `N#Cc1ccccc1CN1C(=O)NC(Cc2c[nH]c3ccccc23)C1=O` (stereo not drawn) to `CC(C)n1nc(C(=O)OCC(=O)c2c[nH]c3ccccc23)c2ccccc2c1=O`, the “hERG current change (%, negative = inhibition) at 1uM” value falls from 4.91% to -1.32%.

Compared with `CCC(C)Oc1ccccc1C1CC(=O)NC2=C1C(=O)CCC2` (stereo not drawn), `CCCCOC(=O)CSC1=C(C#N)C(c2ccc3c(c2)OCO3)CC(=O)N1` (stereo not drawn) is lower in “hERG current change (%, negative = inhibition) at 1uM” value: 8.45% for the first, 5.7% for the second.

First: N#Cc1cccnc1Nc1cccc(Cl)c1
Second: C=CCn1c(=N)c(C#N)cc2c(=O)n3ccccc3nc21
The “hERG current change (%, negative = inhibition) at 1uM” value of the first is higher: 5.52% for the first, -1.94% for the second.

First: Cn1nc(-c2ccc(C(=O)NCCO)cc2)c2ccccc2c1=O
Second: O=C(NNS(=O)(=O)c1ccccc1[N+](=O)[O-])c1ccc(O)cc1
The “hERG current change (%, negative = inhibition) at 1uM” value of the first is higher: 22.3% for the first, -16.1% for the second.

Going from `Cc1nc2nc(C)c(CCC(=O)N3CCC4(CC3)OCCO4)c(C)n2n1` to `O=C(CSc1ccc2nnc(-c3ccccc3)n2n1)N1CCCCC1`, the “hERG current change (%, negative = inhibition) at 1uM” value falls from -1.79% to -6.22%.

First: Clc1ccc(CNc2ccc(CNc3ncn[nH]3)cc2)cc1
Second: O=C(CSCc1ccc(C(=O)O)cc1)Nc1ccc2ccccc2c1
The “hERG current change (%, negative = inhibition) at 1uM” value of the first is lower: -3.33% for the first, 10.6% for the second.

First: Cc1cc(NC(=O)COC(=O)c2nccnc2N)n(-c2ccccc2)n1
Second: CC(C)(C)c1cc(NC(=O)COC(=O)c2ccc(O)cc2O)n(-c2ccccc2)n1
The “hERG current change (%, negative = inhibition) at 1uM” value of the first is higher: 17.7% for the first, -34.6% for the second.

First: CS(=O)(=O)c1ccc(Cl)c(NC(=O)CSc2nncn2-c2ccccc2)c1
Second: CC(C)C(=O)Nc1ccc(-c2nnc(-c3ccccc3)o2)cc1
The “hERG current change (%, negative = inhibition) at 1uM” value of the first is lower: -1.92% for the first, 5.51% for the second.

First: CCOc1cc(C)nc(NCc2ccccc2)n1
Second: COCCCNc1nc(N)c([N+](=O)[O-])c(NCc2ccccc2)n1
The “hERG current change (%, negative = inhibition) at 1uM” value of the first is lower: 5.36% for the first, 13% for the second.

Compared with `CCc1ccc(CNC(=O)C2Cc3cc(S(=O)(=O)N4CCCC4)ccc3N2C(C)=O)cc1` (stereo not drawn), `COc1ccc(/C=C2\SC(=O)N(CCNC(=O)C3CCN(S(=O)(=O)c4cccs4)CC3)C2=O)cc1` is higher in “hERG current change (%, negative = inhibition) at 1uM” value: 2.93% for the first, 14.4% for the second.

Compared with `COc1ccc(OC)c(CNC(=O)Cn2nc(C)c3c(C)n(-c4ccc(C)cc4)nc3c2=O)c1`, `COc1ccc(Cl)c2sc(N(CCN(C)C)C(=O)CCS(=O)(=O)c3ccc(C)cc3)nc12.Cl` is lower in “hERG current change (%, negative = inhibition) at 1uM” value: 13.1% for the first, 2.98% for the second.

Compared with `N#Cc1ccccc1OCC(=O)OCCCOC(=O)COc1ccccc1C#N`, `COC(=O)CN1C(=O)C(O)(CC(=O)c2ccccc2)c2ccccc21` (stereo not drawn) is lower in “hERG current change (%, negative = inhibition) at 1uM” value: 15.7% for the first, 12.5% for the second.

First: COC(=O)C1=C(C)NC(=O)C1(Nc1nccs1)C(F)(F)F (stereo not drawn)
Second: CC(C)CC1=NN(C(=O)c2ccncc2)C(O)(C(F)(F)F)C1 (stereo not drawn)
The “hERG current change (%, negative = inhibition) at 1uM” value of the first is higher: 8.37% for the first, 0.872% for the second.

First: O=C(c1ccccc1C(=O)N1CCN(c2ccc(F)cc2)CC1)N1CCN(c2ccc(F)cc2)CC1
Second: CC(=O)Nc1c(O)nc(SCC(=O)N2CCN(c3ccc(F)cc3)CC2)[nH]c1=O
The “hERG current change (%, negative = inhibition) at 1uM” value of the first is lower: -48.4% for the first, -5.78% for the second.

Compared with `Cc1ccc(-n2c(-c3cccs3)nc3nc4ccccc4nc32)cc1`, `Cc1nc2c(ccc3nc(NC(=O)Cc4ccccc4)sc32)s1` is lower in “hERG current change (%, negative = inhibition) at 1uM” value: 10.5% for the first, 7.37% for the second.

Compared with `O=c1[nH]c(O)c(C=Nc2ccc(Cl)c(C(F)(F)F)c2)c(=O)[nH]1`, `Cn1nc(C(F)(F)F)c2cc(C(=O)Nc3ccc(F)c(Cl)c3)sc21` is higher in “hERG current change (%, negative = inhibition) at 1uM” value: 9.83% for the first, 13.3% for the second.

Going from `COCCCNC(=O)c1cc2c(=O)n3cc(C)ccc3nc2nc1NCC1CCCO1` (stereo not drawn) to `Cc1cccc(OCC(=O)N(Cc2ccc(C)o2)C2CCS(=O)(=O)C2)c1` (stereo not drawn), the “hERG current change (%, negative = inhibition) at 1uM” value rises from -26.6% to -17.3%.

Going from `COCCOCC(O)CN1CCN(c2ccc(C)cc2)CC1.O=C(O)C(=O)O` (stereo not drawn) to `CCc1ccc(-c2nc(CN3CCC(C(=O)N4CCN(c5ccccc5)CC4)CC3)c(C)o2)cc1`, the “hERG current change (%, negative = inhibition) at 1uM” value falls from -1.32% to -5.62%.

First: O=C(c1ccc(Cl)cc1Cl)N1CCSCC1
Second: COc1ccc(-c2cc(C(=O)N3CCCC3)no2)cc1
The “hERG current change (%, negative = inhibition) at 1uM” value of the first is higher: 11.2% for the first, 4.01% for the second.

Compared with `Cc1cc(OCCN2CCCC2)ccc1C(C)C`, `CCOc1ccc(S(=O)(=O)NC2CCCC2)cc1C` is higher in “hERG current change (%, negative = inhibition) at 1uM” value: 4.68% for the first, 17.9% for the second.

Compared with `N#C/C(=C\c1coc2ccccc2c1=O)C(N)=S`, `CCN(CC(=O)NCc1cccs1)C(=O)/C=C/c1cccc(Cl)c1Cl` is lower in “hERG current change (%, negative = inhibition) at 1uM” value: 13.5% for the first, 12.4% for the second.

Compared with `Cc1cc(/C=C2\C(=O)NC(=O)N(c3ccc(F)cc3)C2=O)c(C)n1-c1ccc(C(=O)O)cc1`, `CC1=NN(c2ccccc2)C(=O)/C1=C\C=C1\N(C)c2ccccc2C1(C)C` is lower in “hERG current change (%, negative = inhibition) at 1uM” value: 13.8% for the first, -4.05% for the second.

Going from `Cc1oc(-c2ccccc2F)nc1CSCC(=O)NC1CCCC1` to `CCCc1cc(NCCCCO)n2c(nc3ccccc32)c1C#N`, the “hERG current change (%, negative = inhibition) at 1uM” value falls from 18.6% to -18.6%.

Compared with `CCNS(=O)(=O)c1ccc(CCC(N)=O)cc1`, `CCCCC(CCC(=O)Nc1ccc(C(=O)OCC)cc1)C(=O)O` (stereo not drawn) is higher in “hERG current change (%, negative = inhibition) at 1uM” value: 13.5% for the first, 15.7% for the second.

Compared with `O=C(C1CCN(C2CC(=O)N(c3ccc(Cl)cc3)C2=O)CC1)N1CCOCC1` (stereo not drawn), `NC(=O)C1CCN(CC(=O)NC(=O)NC2CCCC2)CC1` is higher in “hERG current change (%, negative = inhibition) at 1uM” value: 2.01% for the first, 7.5% for the second.

Going from `CCN(CC)C(=O)CCSc1nnc(-c2ccco2)o1` to `CCN(CC)S(=O)(=O)c1ccc2oc(Nc3ccc(OC)cc3)nc2c1`, the “hERG current change (%, negative = inhibition) at 1uM” value falls from 14.3% to 11.6%.

First: CC1CCCC(NC(=O)CSc2nnnn2C)C1C (stereo not drawn)
Second: NC(=O)NCC(=O)N1CCC(C(O)(c2ccccc2)c2ccccc2)CC1
The “hERG current change (%, negative = inhibition) at 1uM” value of the first is higher: 13.2% for the first, 6.01% for the second.

Going from `CC(C)CNc1cc(Cl)c(S(=O)(=O)NCC(C)C)cc1C(=O)O` to `COc1c(Br)cc([N+](=O)[O-])c(OC)c1C(=O)NC(=O)Nc1c(Cl)cccc1Cl`, the “hERG current change (%, negative = inhibition) at 1uM” value rises from 3.8% to 9.18%.

With `O=C(N/C(=C/c1ccccc1Cl)C(=O)N1CCCC1)c1ccccc1` the “hERG current change (%, negative = inhibition) at 1uM” value was 9.54%.

Source: PMC4336329 (PLoS ONE, 2015)
